Hit rate of the full screen: of about 310,000 compounds, about 14,000 (4.5%) showed an effect of 50% or more. Effects have a minus sign here. Some of the results follow.
Each compound was assayed against human ether-à-go-go-related gene (hERG) potassium channel (human, UniProt Q12809) (assay: primary screen, population patch clamp on CHO cells stably expressing hERG).
Sequence of human ether-à-go-go-related gene (hERG) potassium channel (Q12809 whole entry, looked up): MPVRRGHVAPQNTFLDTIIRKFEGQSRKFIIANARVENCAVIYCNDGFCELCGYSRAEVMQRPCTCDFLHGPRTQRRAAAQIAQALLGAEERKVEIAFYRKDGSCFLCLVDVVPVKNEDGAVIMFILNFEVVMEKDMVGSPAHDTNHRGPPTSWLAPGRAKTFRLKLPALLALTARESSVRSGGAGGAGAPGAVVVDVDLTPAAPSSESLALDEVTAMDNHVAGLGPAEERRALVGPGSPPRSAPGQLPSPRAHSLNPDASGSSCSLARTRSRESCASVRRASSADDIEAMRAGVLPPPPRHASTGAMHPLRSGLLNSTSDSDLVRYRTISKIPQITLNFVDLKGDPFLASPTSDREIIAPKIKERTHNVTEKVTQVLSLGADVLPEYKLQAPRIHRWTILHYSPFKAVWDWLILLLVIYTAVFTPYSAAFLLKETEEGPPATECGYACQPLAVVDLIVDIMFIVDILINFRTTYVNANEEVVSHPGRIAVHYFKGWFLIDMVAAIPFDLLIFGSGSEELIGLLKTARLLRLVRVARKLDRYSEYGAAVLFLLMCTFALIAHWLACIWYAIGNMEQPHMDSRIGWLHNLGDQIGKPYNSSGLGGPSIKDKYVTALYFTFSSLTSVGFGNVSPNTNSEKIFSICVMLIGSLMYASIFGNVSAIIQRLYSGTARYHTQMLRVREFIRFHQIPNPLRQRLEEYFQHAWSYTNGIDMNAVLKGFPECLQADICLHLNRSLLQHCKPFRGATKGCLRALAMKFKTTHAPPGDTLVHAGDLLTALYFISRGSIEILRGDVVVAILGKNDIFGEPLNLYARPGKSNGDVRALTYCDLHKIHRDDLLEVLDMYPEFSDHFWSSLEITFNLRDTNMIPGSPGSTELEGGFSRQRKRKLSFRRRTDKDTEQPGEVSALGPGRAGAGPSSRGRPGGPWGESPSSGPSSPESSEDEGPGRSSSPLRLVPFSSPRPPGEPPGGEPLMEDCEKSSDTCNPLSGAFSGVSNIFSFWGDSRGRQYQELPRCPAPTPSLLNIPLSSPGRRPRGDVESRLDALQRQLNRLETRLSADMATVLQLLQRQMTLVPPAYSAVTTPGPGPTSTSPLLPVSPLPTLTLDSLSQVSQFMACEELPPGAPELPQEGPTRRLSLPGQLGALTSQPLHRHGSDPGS
With `Cc1ccc2c(c1)c(CC(=O)Nc1ccc(C)c(F)c1)c(C(=O)O)n2C` the “hERG current change (%, negative = inhibition) at 10uM” value was 3.81%. For `Cc1ccc(OCC(=O)Nc2ccc(N3CCOCC3)cc2)cc1`, the “hERG current change (%, negative = inhibition) at 10uM” value was -5.73%. In the case of `O=C(Nc1ccc(Br)cc1Cl)N1CCOCC1`, the “hERG current change (%, negative = inhibition) at 10uM” value is reported as 4.16%. For `COc1ccc(OCCCC(=O)Nc2cccc([N+](=O)[O-])c2)cc1`, the “hERG current change (%, negative = inhibition) at 10uM” value was -3.79%. In the case of `COc1ccc(NC(=O)C(C)N2C(=O)C3CC=C(Cl)CC3C2=O)cc1` (stereo not drawn), the “hERG current change (%, negative = inhibition) at 10uM” value is reported as 20.4%. `Cc1cc(NC(=O)CN2C(=O)/C(=C/c3cccc(Br)c3)SC2=S)no1` was tested, and the “hERG current change (%, negative = inhibition) at 10uM” value was -2.16%. `O=C(c1cc(S(=O)(=O)N2CCC3(CC2)OCCO3)ccc1F)N1CCCCC1` was tested, and the “hERG current change (%, negative = inhibition) at 10uM” value was -11.9%. For `O=C(NCc1cccs1)c1cc(S(=O)(=O)N2CCCCC2)ccc1Cl`, the “hERG current change (%, negative = inhibition) at 10uM” value was 5.07%. For `COc1ccccc1N1CCN(C(CNS(=O)(=O)c2ccc(C)cc2)c2cccnc2)CC1` (stereo not drawn), the “hERG current change (%, negative = inhibition) at 10uM” value was -38.9%. `CCOC(=O)C1=C(O)C(=O)N(c2ccc(S(N)(=O)=O)cc2)C1c1ccc(Cl)cc1` (stereo not drawn) was tested, and the “hERG current change (%, negative = inhibition) at 10uM” value was 0.263%. `COc1ccc(/C=N/Nc2nnc(Cc3ccccc3)c(=O)[nH]2)cc1` was tested, and the “hERG current change (%, negative = inhibition) at 10uM” value was -15.1%. With `N#Cc1ccc(Cl)cc1NC(=O)COC(=O)c1ccc2c(c1)OCCO2` the “hERG current change (%, negative = inhibition) at 10uM” value was 2.9%. `N#C/C(=C\c1ccc([N+](=O)[O-])cc1)c1nc(C2CC2)cs1` was tested, and the “hERG current change (%, negative = inhibition) at 10uM” value was 4.29%. For `Cc1cccc(OCC(O)Cn2c(N3CCCCC3)nc3c2c(=O)n(C)c(=O)n3C)c1` (stereo not drawn), the “hERG current change (%, negative = inhibition) at 10uM” value was -13.7%. With `c1coc(Cn2c(SCc3nc4ccccc4[nH]3)nnc2-c2cccs2)c1` the “hERG current change (%, negative = inhibition) at 10uM” value was -28%. For `CN(c1ccccc1)S(=O)(=O)c1cccc(NC(=O)CSc2n[nH]c(N)n2)c1`, the “hERG current change (%, negative = inhibition) at 10uM” value was 13.1%. For `COc1ccc(Cl)cc1N1C(=N)SCC1=O`, the “hERG current change (%, negative = inhibition) at 10uM” value was 38.5%. In the case of `Cc1ccc(S(=O)(=O)N2CCN(C(=O)COC(=O)c3cnc(C)cn3)CC2)c(C)c1`, the “hERG current change (%, negative = inhibition) at 10uM” value is reported as 14.7%. With `O=C(CN(c1ccccc1)S(=O)(=O)c1ccccc1)NCCSCc1ccco1` the “hERG current change (%, negative = inhibition) at 10uM” value was -12.6%. In the case of `O=C1N(Cc2cccnc2)C[C@@H]2C[C@@H](c3cccc(OCc4ccccc4)c3)N3CCC[C@@]123`, the “hERG current change (%, negative = inhibition) at 10uM” value is reported as -63.6%. `Clc1ccc(Nc2ccc3ccccc3n2)cc1` was tested, and the “hERG current change (%, negative = inhibition) at 10uM” value was 18.3%. For `CSCCC(NC(=O)C1CCC(C)CC1)C(=O)NCc1ccco1` (stereo not drawn), the “hERG current change (%, negative = inhibition) at 10uM” value was -17.5%. For `Cc1onc(-c2c(Cl)cccc2Cl)c1C(=O)N/N=C(\N)COc1ccc(Cl)cc1`, the “hERG current change (%, negative = inhibition) at 10uM” value was -45.7%. For `COc1cc(C2NC(=O)NC(C)=C2C(=O)OC2CCC(C)CC2)ccc1O` (stereo not drawn), the “hERG current change (%, negative = inhibition) at 10uM” value was 13%. With `COc1ccccc1N(CC(=O)NC1CCCCC1)C(=O)CCC(=O)Nc1ccccn1` the “hERG current change (%, negative = inhibition) at 10uM” value was -3.39%. In the case of `Cc1ccc(C)c2[nH]c(=O)c(CN(Cc3ccco3)S(=O)(=O)c3ccc4c(c3)OCCO4)cc12`, the “hERG current change (%, negative = inhibition) at 10uM” value is reported as 9.44%. With `Cc1cc2nn(-c3ccccc3)nc2cc1NC(=O)c1cccs1` the “hERG current change (%, negative = inhibition) at 10uM” value was -6.84%. For `COc1ccc(C(c2oc(CO)cc(=O)c2O)c2oc(CO)cc(=O)c2O)cc1OC`, the “hERG current change (%, negative = inhibition) at 10uM” value was 14.3%. `Cc1ccc(OCC(=O)N2c3ccccc3CC2C)c([N+](=O)[O-])n1` (stereo not drawn) was tested, and the “hERG current change (%, negative = inhibition) at 10uM” value was 3.51%. For `COc1ccc(Cc2nnc(SCC(=O)NCc3ccco3)o2)cc1`, the “hERG current change (%, negative = inhibition) at 10uM” value was 8.75%. In the case of `Cc1cc(C(F)(F)F)cc(NNC(=O)NC(=O)c2c(F)cccc2Cl)n1`, the “hERG current change (%, negative = inhibition) at 10uM” value is reported as -14.1%. In the case of `CCOc1ccc(C(=O)NNC(=O)CN2C(=O)NC3(CCCC3)C2=O)cc1`, the “hERG current change (%, negative = inhibition) at 10uM” value is reported as -5.43%. For `Clc1ccc(CSc2snnc2-c2ccccc2)cc1`, the “hERG current change (%, negative = inhibition) at 10uM” value was 2.46%. For `COc1cccc(CNC(=O)COC(=O)CN2C(=O)NC3(CCCCC3C)C2=O)c1` (stereo not drawn), the “hERG current change (%, negative = inhibition) at 10uM” value was 2.13%. With `Cc1cc(NC(=O)CCC(=O)N(c2cccc(F)c2)C(C(=O)NC2CCCC2)c2ccc(C)o2)no1` (stereo not drawn) the “hERG current change (%, negative = inhibition) at 10uM” value was 13.9%. For `O=C(Oc1c(-c2ccccc2)c(=O)n2c3c(cccc13)CC2)c1ccc(F)cc1`, the “hERG current change (%, negative = inhibition) at 10uM” value was 10.4%. For `CCOC(=O)C1CCCN(C(=O)CN(c2ccc(OC)cc2)S(=O)(=O)c2c(C)noc2C)C1` (stereo not drawn), the “hERG current change (%, negative = inhibition) at 10uM” value was -4.08%. For `Cc1ccc(C(=O)NC2CCCCCC2)cc1S(=O)(=O)N1CCOCC1`, the “hERG current change (%, negative = inhibition) at 10uM” value was -26.5%. For `COc1ccc(C)cc1S(=O)(=O)N(C)CC(=O)N1CCN(c2ccccc2)CC1`, the “hERG current change (%, negative = inhibition) at 10uM” value was -41.3%. In the case of `COc1ccc(CCNC(=O)c2cnc3ccccc3n2)cc1`, the “hERG current change (%, negative = inhibition) at 10uM” value is reported as 9.44%. For `Cl.c1ccc(CSc2nnc(-c3cccnc3)o2)cc1`, the “hERG current change (%, negative = inhibition) at 10uM” value was -34.1%. For `O=C(CSc1nnnn1C1CCCCC1)NCc1cccc(C(=O)O)c1`, the “hERG current change (%, negative = inhibition) at 10uM” value was 1.79%.

Reference: PMC4336329 (PLoS ONE, 2015)
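Note: peak tail current of the secondary pulse compared with the same well before compound.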
